{"source": "the supplement of paper PMC8728848", "binders": {"B1": {"name": "Ficolin A (Rattus norvegicus), Q9WTS8 (protein)", "chain": "MWWPMLWAFPVLLCLCSSQALGQESGACPDVKIVGLGAQDKVAVIQSCPSFPGPPGPKGEPGSPAGRGERGLQGSPGKMGPPGSKGEPGTMGPPGVKGEKGERGTASPLGQKELGDALCRRGPRSCKDLLTRGIFLTGWYTIYLPDCRPLTVLCDMDVDGGGWTVFQRRVDGSINFYRDWDSYKRGFGNLGTEFWLGNDYLHLLTANGNQELRVDLREFQGQTSFAKYSSFQVSGEQEKYKLTLGQFLEGTAGDSLTKHNNMAFSTHDQDNDTNGGKNCAALFHGAWWYHDCHQSNLNGRYLPGSHESYADGINWLSGRGHRYSYKVAEMKIRAS"}}, "assay_in_all_cases": "glycan array binding signal (z-score within array); higher = stronger binding", "conditions_in_all_cases": "glycan notation: IUPAC condensed, linker removed", "key": {"Fuc(a1-2)Gal": {"target": "Fuc(a1-2)Gal", "procedure,_shortened": "(§1)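 Columns mapping to the same glycan were averaged after glycan names were converted to IUPAC-condensed notation. The data come from 3228 arrays in the Consortium for Functional Glycomics database, limited to those with an available protein sequence. Binding is reported as a within-array Z-score averaged across arrays of one protein sequence and across linkers.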"}, "Fuc(a1-2)Gal(b1-3)GalNAc": {"target": "Fuc(a1-2)Gal(b1-3)GalNAc", "procedure,_shortened": "as §1"}, "[1]": {"target": "Fuc(a1-2)Gal(b1-3)GalNAc(b1-3)Gal", "procedure,_shortened": "as §1"}, "[2]": {"target": "Fuc(a1-2)Gal(b1-3)GalNAc(b1-3)Gal(a1-4)Gal(b1-4)Glc", "procedure,_shortened": "as §1"}, "[3]": {"target": "Fuc(a1-2)Gal(b1-3)GalNAc(b1-4)[Neu5Ac(a2-3)]Gal(b1-4)Glc", "procedure,_shortened": "as §1"}, "Fuc(a1-2)Gal(b1-3)GlcNAc": {"target": "Fuc(a1-2)Gal(b1-3)GlcNAc", "procedure,_shortened": "as §1"}, "[4]": {"target": "Fuc(a1-2)Gal(b1-3)GlcNAc(b1-3)Gal(b1-4)Glc", "procedure,_shortened": "as §1"}, "[5]": {"target": "Fuc(a1-2)Gal(b1-3)[Fuc(a1-4)]GlcNAc", "procedure,_shortened": "as §1"}, "Fuc(a1-2)Gal(b1-4)Glc": {"target": "Fuc(a1-2)Gal(b1-4)Glc", "procedure,_shortened": "as §1"}, "Fuc(a1-2)Gal(b1-4)Glc6S": {"target": "Fuc(a1-2)Gal(b1-4)Glc6S", "procedure,_shortened": "as §1"}, "Fuc(a1-2)Gal(b1-4)GlcNAc": {"target": "Fuc(a1-2)Gal(b1-4)GlcNAc", "procedure,_shortened": "as §1"}, "[6]": {"target": "Fuc(a1-2)Gal(b1-4)GlcNAc(b1-3)Gal(b1-4)GlcNAc", "procedure,_shortened": "as §1"}, "[7]": {"target": "Fuc(a1-2)Gal(b1-4)GlcNAc(b1-3)Gal(b1-4)GlcNAc(b1-3)Gal(b1-4)GlcNAc", "procedure,_shortened": "as §1"}, "[8]": {"target": "Fuc(a1-2)Gal(b1-4)GlcNAc6S", "procedure,_shortened": "as §1"}, "[9]": {"target": "Fuc(a1-2)Gal(b1-4)[Fuc(a1-3)]GlcNAc", "procedure,_shortened": "as §1"}, "[10]": {"target": "Fuc(a1-2)Gal(b1-4)[Fuc(a1-3)]GlcNAc(b1-3)Gal(b1-4)[Fuc(a1-3)]GlcNAc", "procedure,_shortened": "as §1"}, "[11]": {"target": "Fuc(a1-2)Gal(b1-4)[Fuc(a1-3)]GlcNAc(b1-3)Gal(b1-4)[Fuc(a1-3)]GlcNAc(b1-3)Gal(b1-4)[Fuc(a1-3)]GlcNAc", "procedure,_shortened": "as §1"}, "Fuc(a1-2)Gal6S(b1-4)Glc": {"target": "Fuc(a1-2)Gal6S(b1-4)Glc", "procedure,_shortened": "as §1"}, "[12]": {"target": "Fuc(a1-2)Gal6S(b1-4)Glc6S", "procedure,_shortened": "as §1"}, "[13]": {"target": "Fuc(a1-2)Gal6S(b1-4)GlcNAc", "procedure,_shortened": "as §1"}, "Fuc(a1-2)[Gal(a1-3)]Gal": {"target": "Fuc(a1-2)[Gal(a1-3)]Gal", "procedure,_shortened": "as §1"}, "[14]": {"target": "Fuc(a1-2)[Gal(a1-3)]Gal(b1-3)GlcNAc", "procedure,_shortened": "as §1"}, "[15]": {"target": "Fuc(a1-2)[Gal(a1-3)]Gal(b1-4)Glc", "procedure,_shortened": "as §1"}, "[16]": {"target": "Fuc(a1-2)[Gal(a1-3)]Gal(b1-4)GlcNAc", "procedure,_shortened": "as §1"}, "[17]": {"target": "Fuc(a1-2)[Gal(a1-3)]Gal(b1-4)[Fuc(a1-3)]GlcNAc", "procedure,_shortened": "as §1"}, "[18]": {"target": "Fuc(a1-2)[Gal(a1-4)]Gal(b1-4)GlcNAc", "procedure,_shortened": "as §1"}, "[19]": {"target": "Fuc(a1-2)[GalNAc(a1-3)]Gal", "procedure,_shortened": "as §1"}, "[20]": {"target": "Fuc(a1-2)[GalNAc(a1-3)]Gal(b1-3)GlcNAc", "procedure,_shortened": "as §1"}, "[21]": {"target": "Fuc(a1-2)[GalNAc(a1-3)]Gal(b1-4)Glc", "procedure,_shortened": "as §1"}, "[22]": {"target": "Fuc(a1-2)[GalNAc(a1-3)]Gal(b1-4)GlcNAc", "procedure,_shortened": "as §1"}, "[23]": {"target": "Fuc(a1-2)[GalNAc(a1-3)]Gal(b1-4)[Fuc(a1-3)]GlcNAc", "procedure,_shortened": "as §1"}, "[24]": {"target": "Fuc(a1-2)[GalNAc(a1-4)]Gal(b1-4)GlcNAc", "procedure,_shortened": "as §1"}, "[25]": {"target": "Fuc(a1-2)[GalNAc(b1-3)]Gal", "procedure,_shortened": "as §1"}, "Fuc(a1-3)GlcNAc": {"target": "Fuc(a1-3)GlcNAc", "procedure,_shortened": "as §1"}, "[26]": {"target": "Fuc(a1-3)[Gal(b1-4)]Glc6S", "procedure,_shortened": "as §1"}, "[27]": {"target": "Fuc(a1-3)[Gal(b1-4)]GlcNAc", "procedure,_shortened": "as §1"}, "[28]": {"target": "Fuc(a1-3)[Gal(b1-4)]GlcNAc(b1-2)Man(a1-3)[Fuc(a1-3)[Gal(b1-4)]GlcNAc(b1-2)Man(a1-6)]Man(b1-4)GlcNAc(b1-4)GlcNAc", "procedure,_shortened": "as §1"}}, "note": "Some of the results follow.", "data": [{"binder": "B1", "values": [{"measurement": "glycan array binding signal (z-score)", "setting": "Fuc(a1-2)Gal", "result": -0.026}, {"measurement": "glycan array binding signal (z-score)", "setting": "Fuc(a1-2)Gal(b1-3)GalNAc", "result": -0.108}, {"measurement": "glycan array binding signal (z-score)", "setting": "[1]", "result": -0.073}, {"measurement": "glycan array binding signal (z-score)", "setting": "[2]", "result": -0.033}, {"measurement": "glycan array binding signal (z-score)", "setting": "[3]", "result": -0.091}, {"measurement": "glycan array binding signal (z-score)", "setting": "Fuc(a1-2)Gal(b1-3)GlcNAc", "result": -0.07}, {"measurement": "glycan array binding signal (z-score)", "setting": "[4]", "result": -0.053}, {"measurement": "glycan array binding signal (z-score)", "setting": "[5]", "result": -0.046}, {"measurement": "glycan array binding signal (z-score)", "setting": "Fuc(a1-2)Gal(b1-4)Glc", "result": -0.102}, {"measurement": "glycan array binding signal (z-score)", "setting": "Fuc(a1-2)Gal(b1-4)Glc6S", "result": -0.084}, {"measurement": "glycan array binding signal (z-score)", "setting": "Fuc(a1-2)Gal(b1-4)GlcNAc", "result": 0.062}, {"measurement": "glycan array binding signal (z-score)", "setting": "[6]", "result": -0.032}, {"measurement": "glycan array binding signal (z-score)", "setting": "[7]", "result": -0.051}, {"measurement": "glycan array binding signal (z-score)", "setting": "[8]", "result": -0.062}, {"measurement": "glycan array binding signal (z-score)", "setting": "[9]", "result": -0.084}, {"measurement": "glycan array binding signal (z-score)", "setting": "[10]", "result": -0.072}, {"measurement": "glycan array binding signal (z-score)", "setting": "[11]", "result": -0.064}, {"measurement": "glycan array binding signal (z-score)", "setting": "Fuc(a1-2)Gal6S(b1-4)Glc", "result": -0.114}, {"measurement": "glycan array binding signal (z-score)", "setting": "[12]", "result": -0.137}, {"measurement": "glycan array binding signal (z-score)", "setting": "[13]", "result": -0.093}, {"measurement": "glycan array binding signal (z-score)", "setting": "Fuc(a1-2)[Gal(a1-3)]Gal", "result": -0.072}, {"measurement": "glycan array binding signal (z-score)", "setting": "[14]", "result": -0.095}, {"measurement": "glycan array binding signal (z-score)", "setting": "[15]", "result": -0.122}, {"measurement": "glycan array binding signal (z-score)", "setting": "[16]", "result": -0.086}, {"measurement": "glycan array binding signal (z-score)", "setting": "[17]", "result": -0.084}, {"measurement": "glycan array binding signal (z-score)", "setting": "[18]", "result": -0.116}, {"measurement": "glycan array binding signal (z-score)", "setting": "[19]", "result": -0.035}, {"measurement": "glycan array binding signal (z-score)", "setting": "[20]", "result": -0.1}, {"measurement": "glycan array binding signal (z-score)", "setting": "[21]", "result": -0.09}, {"measurement": "glycan array binding signal (z-score)", "setting": "[22]", "result": -0.02}, {"measurement": "glycan array binding signal (z-score)", "setting": "[23]", "result": 0.084}, {"measurement": "glycan array binding signal (z-score)", "setting": "[24]", "result": -0.068}, {"measurement": "glycan array binding signal (z-score)", "setting": "[25]", "result": -0.032}, {"measurement": "glycan array binding signal (z-score)", "setting": "Fuc(a1-3)GlcNAc", "result": -0.111}, {"measurement": "glycan array binding signal (z-score)", "setting": "[26]", "result": -0.108}, {"measurement": "glycan array binding signal (z-score)", "setting": "[27]", "result": -0.087}, {"measurement": "glycan array binding signal (z-score)", "setting": "[28]", "result": -0.099}]}]}
